Measurements as given in patent publication US6544989B2, “Benzazoles: benzoxazole, benzthiazole and benzimidazole derivatives” (Syngenta Limited, priority 1998, dated 2003).

How the values were obtained:
Conditions in all cases: 500 ppm by weight; mortality assessed usually between three and five days after treatment
[1] = tested on: Spodoptera exigua; assay: Pesticidal test, Spodoptera exigua mortality
Procedure: (§1) The test procedure adopted with regard to each pest, except nematodes, was essentially the same and composed supporting a number of the pests on a medium which was usually a substrate, a host plant or a foodstuff on which the pests feed, and treating either or both the medium and the pests with a composition. Pest mortality was assessed usually between three and five days after treatment Knockdown of housefly (Musca domestica) was assessed 15 minutes after treatment

[2] = tested on: Musca domestica
Procedure: as §1

[3] = tested on: Tetranychus urticae
Procedure: as §1

[4] = tested on: Heliothis virescens
Procedure: as §1

[5] = tested on: Myzus persicae; assay: Pesticidal test, Myzus persicae mortality
Procedure: as §1

Compound | LAPHEG = Spodoptera exigua, grading of mortality (score) [1] | MUSCDO AK = Musca domestica (kill), grading of mortality (score) [2] | TETRUR = Tetranychus urticae, grading of mortality (score) [3] | HELIVI = Heliothis virescens, grading of mortality (score) [4] | MYZUPE = Myzus persicae, grading of mortality (score) [5]
CCCc1nc2cc(CC(=O)N(C)c3snc(C)c3Cl)ccc2o1 [4(B3)] | 5 (5 indicates 40-79% mortality) | 0 (0 indicates less than 40% mortality) | 0 (0 indicates less than 40% mortality) | 0 (0 indicates less than 40% mortality) | 5 (5 indicates 40-79% mortality)
CCCc1nc2cc(CC(=O)N(CC)c3snc(C)c3Cl)ccc2o1 [4(C3)] | 9 (9 indicates 80-100% mortality) | 5 (5 indicates 40-79% mortality) | 9 (9 indicates 80-100% mortality) | 0 (0 indicates less than 40% mortality) | 9 (9 indicates 80-100% mortality)
CCCc1nc2cc(CC(=O)N(CCC)c3snc(C)c3Cl)ccc2o1 [4(D3)] | 5 (5 indicates 40-79% mortality) | 0 (0 indicates less than 40% mortality) | 9 (9 indicates 80-100% mortality) | 0 (0 indicates less than 40% mortality) | 5 (5 indicates 40-79% mortality)
C=CCN(C(=O)Cc1ccc2oc(CCC)nc2c1)c1snc(C)c1Cl [4(E3)] | 0 (0 indicates less than 40% mortality) | 0 (0 indicates less than 40% mortality) | 5 (5 indicates 40-79% mortality) | 0 (0 indicates less than 40% mortality) | 9 (9 indicates 80-100% mortality)
C#CCN(C(=O)Cc1ccc2oc(CCC)nc2c1)c1snc(C)c1Cl [4(F3)] | 9 (9 indicates 80-100% mortality) | 5 (5 indicates 40-79% mortality) | 5 (5 indicates 40-79% mortality) | 0 (0 indicates less than 40% mortality) | 9 (9 indicates 80-100% mortality)
CCCc1nc2cc(CC(=O)N(COC)c3snc(C)c3Cl)ccc2o1 [4(K3)] | 5 (5 indicates 40-79% mortality) | 0 (0 indicates less than 40% mortality) | 0 (0 indicates less than 40% mortality) | 0 (0 indicates less than 40% mortality) | 5 (5 indicates 40-79% mortality)
CCCc1nc2cc(CC(=O)N(COCC)c3snc(C)c3Cl)ccc2o1 [4(L3)] | 9 (9 indicates 80-100% mortality) | 5 (5 indicates 40-79% mortality) | 9 (9 indicates 80-100% mortality) | 9 (9 indicates 80-100% mortality) | 9 (9 indicates 80-100% mortality)
CCCc1nc2cc(CC(=O)N(COCCOC)c3snc(C)c3Cl)ccc2o1 [4(M3)] | 0 (0 indicates less than 40% mortality) | 0 (0 indicates less than 40% mortality) | 0 (0 indicates less than 40% mortality) | 0 (0 indicates less than 40% mortality) | 9 (9 indicates 80-100% mortality)
CCCCc1nc2cc(CC(=O)Nc3snc(C)c3Cl)ccc2o1 [5(A3)] | 5 (5 indicates 40-79% mortality) | 0 (0 indicates less than 40% mortality) | 0 (0 indicates less than 40% mortality) | 5 (5 indicates 40-79% mortality) | 9 (9 indicates 80-100% mortality)
Cc1nsc(NC(=O)Cc2ccc3oc(C(C)C)nc3c2)c1Cl [8(A3)] | 5 (5 indicates 40-79% mortality) | 9 (9 indicates 80-100% mortality) | 0 (0 indicates less than 40% mortality) | 5 (5 indicates 40-79% mortality) | 5 (5 indicates 40-79% mortality)
Cc1nsc(NC(=O)Cc2ccc3oc(C(C)(C)C)nc3c2)c1Cl [9(A3)] | 5 (5 indicates 40-79% mortality) | 0 (0 indicates less than 40% mortality) | 9 (9 indicates 80-100% mortality) | 9 (9 indicates 80-100% mortality) | 5 (5 indicates 40-79% mortality)
CCC(C)c1nc2cc(CC(=O)Nc3snc(C)c3Cl)ccc2o1 (centres unmarked) [10(A3)] | 5 (5 indicates 40-79% mortality) | 0 (0 indicates less than 40% mortality) | 0 (0 indicates less than 40% mortality) | 5 (5 indicates 40-79% mortality) | 9 (9 indicates 80-100% mortality)
CCC(CC)c1nc2cc(CC(=O)Nc3snc(C)c3Cl)ccc2o1 [13(A3)] | 0 (0 indicates less than 40% mortality) | 5 (5 indicates 40-79% mortality) | 9 (9 indicates 80-100% mortality) | 0 (0 indicates less than 40% mortality) | 9 (9 indicates 80-100% mortality)
Cc1nsc(NC(=O)Cc2ccc3oc(CC(C)C)nc3c2)c1Cl [14(A3)] | 9 (9 indicates 80-100% mortality) | 5 (5 indicates 40-79% mortality) | 9 (9 indicates 80-100% mortality) | 9 (9 indicates 80-100% mortality) | 9 (9 indicates 80-100% mortality)
Cc1cc(NC(=O)Cc2ccc3oc(CC(C)(C)C)nc3c2)sn1 [15(A1)] | 0 (0 indicates less than 40% mortality) | 0 (0 indicates less than 40% mortality) | 9 (9 indicates 80-100% mortality) | 0 (0 indicates less than 40% mortality) | 0 (0 indicates less than 40% mortality)
Cc1nsc(NC(=O)Cc2ccc3oc(CC(C)(C)C)nc3c2)c1Br [15(A4)] | 9 (9 indicates 80-100% mortality) | 9 (9 indicates 80-100% mortality) | 9 (9 indicates 80-100% mortality) | 0 (0 indicates less than 40% mortality) | 9 (9 indicates 80-100% mortality)
